For at least one compound, name, drawing or mass did not settle the structure. Some of these results come from one statement about several compounds together. Starred links: 1 amine or outer side, 2 acyl side, 3 side chain; linkers in the order of their positions; H or OH if unused. Non-standard residues stand in square brackets, D forms with d. Residues, ends and D or L forms follow the SMILES beside them. Groups on a side chain read outwards from the residue. *: point of attachment. C20 diacid = O=C(O)CCCCCCCCCCCCCCCCCCC(=O)*; γGlu = O=C(O)[C@H](CCC(=O)[*:2])N[*:1]; NMeI = CC[C@H](C)[C@H](NC)C(=O)O; AEEA = NCCOCCOCC(=O)O
Assays:
[1] = target: T1, human CRHR2b (Homo sapiens, UniProt Q13324); assay: human CRHR2b cell-based cAMP assay; conditions: statement in words
T1 construct: expressed in transfected cells; host or cells: Chinese Hamster Ovary (CHO) cells, transient transfection
T1 sequence (Q13324 1-438 isoform Q13324-2): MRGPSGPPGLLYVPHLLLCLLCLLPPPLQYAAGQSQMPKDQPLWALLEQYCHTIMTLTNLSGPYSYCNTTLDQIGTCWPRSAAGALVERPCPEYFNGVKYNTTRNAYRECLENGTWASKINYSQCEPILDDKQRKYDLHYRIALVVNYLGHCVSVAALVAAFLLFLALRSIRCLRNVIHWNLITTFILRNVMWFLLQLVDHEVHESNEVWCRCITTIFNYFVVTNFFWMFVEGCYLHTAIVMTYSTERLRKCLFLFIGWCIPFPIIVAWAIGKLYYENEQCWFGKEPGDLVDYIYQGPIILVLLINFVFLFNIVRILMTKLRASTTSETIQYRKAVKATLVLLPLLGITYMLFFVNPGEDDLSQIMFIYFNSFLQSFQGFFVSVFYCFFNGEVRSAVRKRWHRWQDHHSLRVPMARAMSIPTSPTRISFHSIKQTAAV
Method in brief: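 ED50 values are means ± SEM over several runs, curve-fitted from cAMP in pmol, calibrated against unlabeled-cAMP standards. Detection was HTRF competition, ratio 665/620 nm, after 30 min agonist exposure at 37 °C.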

[2] = tested on: DIO mice; assay: In vivo Diet Induced Obesity (DIO) model, chronic dose administration; parameters: species or system C57BL6 mice; conditions: for Fat mass change (g ± SEM) / Lean mass change (g ± SEM): day 1 to day 15; for Blood glucose AUC during ipGTT / Serum insulin AUC during ipGTT: ipGTT day 16
[3] = male DIO mice, 2.4 nmol/kg s.c. days 1,4,7,10,13
[4] = male DIO mice, 7.2 nmol/kg s.c. days 1,4,7,10,13
[5] = male DIO mice, 24 nmol/kg s.c. days 1,4,7,10,13
[6] = male DIO mice, 72 nmol/kg s.c. days 1,4,7,10,13
[7] = male DIO mice, 144 nmol/kg s.c. days 1,4,7,10,13
[8] = male DIO mice, s.c. days 1,4,7,10,13, 2.4-144 nmol/kg
[9] = s.c. every third day for 15 consecutive days, statement in words

CC[C@H](C)[C@H](NC)C(=O)N[C@H](C(=O)N[C@@H](CC(C)C)C(=O)N[C@@H](CO)C(=O)N[C@@H](CC(C)C)C(=O)N[C@@H](CC(=O)O)C(=O)N[C@H](C(=O)N1CCC[C@H]1C(=O)N[C@H](C(=O)NCC(=O)N[C@@H](CC(C)C)C(=O)N[C@@H](CC(C)C)C(=O)N[C@@H](CCC(N)=O)C(=O)N[C@H](C(=O)N[C@@H](CC(C)C)C(=O)N[C@@H](CC(C)C)C(=O)N[C@@H](CCC(=O)O)C(=O)N[C@@H](CCC(N)=O)C(=O)N[C@@H](CCC(=O)O)C(=O)N[C@@H](CCCCN)C(=O)N[C@@H](CCC(N)=O)C(=O)N[C@@H](CCC(=O)O)C(=O)N[C@@H](CCCCN)C(=O)N[C@@H](CCC(=O)O)C(=O)N[C@@H](CCCCN)C(=O)N[C@@H](CCC(N)=O)C(=O)N[C@@H](CCC(N)=O)C(=O)N[C@@H](C)C(=O)N[C@@H](CCCCNC(=O)COCCOCCNC(=O)COCCOCCNC(=O)CC[C@H](NC(=O)CC[C@H](NC(=O)CCCCCCCCCCCCCCCCCCC(=O)O)C(=O)O)C(=O)O)C(=O)N[C@H](C(=O)N[C@@H](CC(N)=O)C(=O)N[C@@H](C)C(=O)N[C@@H](CCC(N)=O)C(=O)N[C@H](C(=O)N[C@@H](CC(C)C)C(=O)N[C@@H](C)C(=O)N[C@@H](CCC(N)=O)C(=O)N[C@H](C(N)=O)C(C)C)[C@@H](C)CC)[C@@H](C)O)[C@@H](C)CC)[C@@H](C)CC)C(C)C)C(C)C [Example 4] (H-[NMeI]VLSLDVPIGLLQILLEQEKQEKEKQQAK([AEEA-AEEA-γGlu-γGlu-C20 diacid])TNAQILAQV-NH2)
CRHR2 agonist activity in a cAMP assay [1]: have CRHR2 agonist activity | ED50 for fasting serum insulin lowering ([2]; male DIO mice): 6.47 nmol/kg | Body weight change (% change ± SEM) [2, 3]: 2.3 ± 1.6% | Fasting blood glucose (mg/dL ± SEM) [2, 3]: 93 ± 6.4 mg/dL | Fasting serum insulin (ng/mL ± SEM) [2, 3]: 1.3 ± 0.08 ng/mL | Fat mass change (g ± SEM) [2, 3]: 0 ± 0.7 g | Lean mass change (g ± SEM) [2, 3]: 1.2 ± 0.21 g | Blood glucose AUC during ipGTT [2, 3]: 32016 ± 3812 mg/dL × min^−1 | Serum insulin AUC during ipGTT [2, 3]: 313 ± 22 ng/mL × min^−1 | Body weight change (% change ± SEM) [2, 4]: −0.52 ± 1.2% | Fasting blood glucose (mg/dL ± SEM) [2, 4]: 80 ± 3.8 mg/dL | Fasting serum insulin (ng/mL ± SEM) [2, 4]: 0.56 ± 0.21 ng/mL | Fat mass change (g ± SEM) [2, 4]: -1 ± 0.45 g | Lean mass change (g ± SEM) [2, 4]: 0.52 ± 0.16 g | Blood glucose AUC during ipGTT [2, 4]: 31918 ± 2396 mg/dL × min^−1 | Serum insulin AUC during ipGTT [2, 4]: 218 ± 42 ng/mL × min^−1 | Body weight change (% change ± SEM) [2, 5]: −4.1 ± 1.6 % | Fasting blood glucose (mg/dL ± SEM) [2, 5]: 86 ± 4.6 mg/dL | Fasting serum insulin (ng/mL ± SEM) [2, 5]: 0.52 ± 0.14 ng/mL | Fat mass change (g ± SEM) [2, 5]: -2.7 ± 0.63 g | Lean mass change (g ± SEM) [2, 5]: 0.84 ± 0.33 g | Blood glucose AUC during ipGTT [2, 5]: 31649 ± 2174 mg/dL × min^−1 | Serum insulin AUC during ipGTT [2, 5]: 205 ± 31 ng/mL × min^−1 | Body weight change (% change ± SEM) [2, 6]: −15 ± 1.2 % | Fasting blood glucose (mg/dL ± SEM) [2, 6]: 80 ± 3.8 mg/dL | Fasting serum insulin (ng/mL ± SEM) [2, 6]: 0.25 ± 0.15 ng/mL | Fat mass change (g ± SEM) [2, 6]: -7.8 ± 0.56 g | Lean mass change (g ± SEM) [2, 6]: 0.14 ± 0.19 g | Blood glucose AUC during ipGTT [2, 6]: 29750 ± 3055 mg/dL × min^−1 | Serum insulin AUC during ipGTT [2, 6]: 132 ± 14 ng/mL × min^−1 | Body weight change (% change ± SEM) [2, 7]: −15 ± 0.98 % | Fasting blood glucose (mg/dL ± SEM) [2, 7]: 78 ± 3.2 mg/dL | Fasting serum insulin (ng/mL ± SEM) [2, 7]: 0.6 ± 0.4 ng/mL | Fat mass change (g ± SEM) [2, 7]: -7.1 ± 0.54 g | Lean mass change (g ± SEM) [2, 7]: 0.02 ± 0.36 g | Blood glucose AUC during ipGTT [2, 7]: 27984 ± 1481 mg/dL × min^−1 | Serum insulin AUC during ipGTT [2, 7]: 118 ± 7.4 ng/mL × min^−1 | ED50, Blood glucose AUC during ipGTT [2, 8]: Ambiguous | ED50, Body weight change [2, 8]: 29.03 nmol/kg | ED50, Fasting blood glucose [2, 8]: Ambiguous | ED50, Fasting serum insulin [2, 8]: 4.30 nmol/kg | ED50, Fat mass change [2, 8]: 27.19 nmol/kg | ED50, Lean mass change [2, 8]: Ambiguous | ED50, Serum insulin AUC during ipGTT [2, 8]: 21.13 nmol/kg | fasting serum glucose and serum insulin [2, 9]: reduction of fasting serum glucose and serum insulin | glucose tolerance (glucose and insulin AUC during IPGTT) [2, 9]: improvements in: glucose tolerance | total body weight and body composition vs Vehicle DIO mice ([2]; s.c. once every three days for 15 consecutive days, statement in words): decreases in: total body weight and improved body composition
